Laboratory results reported in PMC12136788.
Some of the results follow.

T1: UNK ZnF1-3 (human, UniProt Q9C0B0 31-174)
T1 sequence: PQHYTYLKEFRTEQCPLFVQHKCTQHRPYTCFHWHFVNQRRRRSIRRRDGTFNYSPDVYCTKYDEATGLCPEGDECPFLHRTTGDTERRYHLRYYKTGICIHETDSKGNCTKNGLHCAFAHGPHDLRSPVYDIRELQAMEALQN

B1: chr2:18084439:18084440:+_ENSMUSG00000026743_ENSMUST00000114669|mus_hu|motif|central (ssRNA)
RNA: GGGAGUUCUACAGUCCGACGAUCGAGCAAUGUAGGAGAUUUCUGCAGACUAGAGCUUGUUAUGCUUCCUGCAGCUGAUGCGGCAGAUGAUGUUGGUGAAGCAGAAGAAACUGAGAGAUGAGAAACAUUCUCUUGAUUUUUGUUCAACAGAGGAUUGAGCAUCA
B2: chr2:183846084:183846085:-_ENSG00000061676_ENST00000360982|hu_mus|FALSE|FALSE (ssRNA)
RNA: GGGAGUUCUACAGUCCGACGAUCGAGGUAUUGCACGUAGUACCUCUGCAUGACAGGCCCAUACUUCCUGACAUGUGCUCUAAGCUCUUCCAUGUAAAAUAUUAGCUCAGCAAUGUGCUUAUCUAUAAAGUCAUCUGCACUCUUCAACAGAGGAUUGAGCAUCA
B3: chr9:53430067:53430068:-_ENSMUSG00000032030_ENSMUST00000166367|mus_mus|FALSE|FALSE (ssRNA)
RNA: GGGAGUUCUACAGUCCGACGAUCGGGUGAGUUGACUUGAGGGUCAUACAACAAAACUUGCCGUUUGAGCUUGGGAAAAGCUACUAAAGACCAUAAAGUCCUUCUAAGUUCAGCAUCUGGGAGUUCCGUUGCAAGUUUUAGAUUCAACAGAGGAUUGAGCAUCA
B4: chr2:198351390:198351391:-_ENSG00000144381_ENST00000345042|hu_hu|motif|central (ssRNA)
RNA: GGGAGUUCUACAGUCCGACGAUCUUAUUCUCACUCUCCACAGAAAGGCUGCUUAACUUCUCAUCUGGUGGUGGCAAGCACGGAAAUCCUGAUUUUAACAGAAUAGUAGUAAAAAUGCCUCAGUGAUUUAAGUUGAAAGCAGUACAACAGAGGAUUGAGCAUCA
B5: chr12:48362563:48362564:+_ENSG00000134291_ENST00000256686|hu_hu|hu_hu_hu_mus_False|8_108 (ssRNA)
RNA: GGGAGUUCUACAGUCCGACGAUCUCCGAAGGGUGAAUCGAUAGACCCUUGCGGGGGAAACUGUAAUCACUUUGUAUGGGGAAGGAAAAGAAACGCCAAAAACUUUCCAAAAAGCGGGGGUGGGGUGUCCCAGGCCUGGGAGGUCAACAGAGGAUUGAGCAUCA
B6: chr14:103969519:103969520:+_ENSG00000075413_ENST00000216288|hu_hu|motif|central (ssRNA)
RNA: GGGAGUUCUACAGUCCGACGAUCAUCACUGGGUUACAGCUUUAGCUCAUUGGCAAUUUUGGAAGCAAUAUUUUUGAAGGCGGUGGAUGUCCCCGAUAUCCGCUUAAACCGGACCCCGUUCAGAGACAGUCUUGGCAGCUUGCACAACAGAGGAUUGAGCAUCA
B7: chr14:22664367:22664368:+_ENSMUSG00000021771_ENSMUST00000022293|mus_mus|motif|central (ssRNA)
RNA: GGGAGUUCUACAGUCCGACGAUCAGACAGUGUAAGCUUCACACCAGGCCUCAGAGUCUGAGUAUAGCCCACUCCAAUUAAACGGGAGUUGUUGACCUUUGCAGAGAUAGAAGCAGUAGGAUCCAACUGGUAUUUAGCUGCAAUCAACAGAGGAUUGAGCAUCA
B8: chr4:1729744:1729745:+_ENSG00000013810_ENST00000313288|hu_hu|FALSE|FALSE (ssRNA)
RNA: GGGAGUUCUACAGUCCGACGAUCGGACUCUGUCCUGCAAGGGUCUUCUAGGGUCUCAGAGGCGGGUGUCACUCUUCUGUCUAAGGAAUAGGAACUAAGGUUUUCCUCCACGGCUUGCUCAGGGCUGCCAGACACUUUUCCUGGCAACAGAGGAUUGAGCAUCA
B9: chr5:138699528:138699529:+_ENSG00000120727_ENST00000265192|hu_hu|motif|central (ssRNA)
RNA: GGGAGUUCUACAGUCCGACGAUCGUCAUCUUCAUGAGAAUGACCGUUAAUAAUCACAUCUUCAUUGAUGAUGCUUGGGCGGGUACUGCUGCGACUUGGAUCUUUCAUGGCUGAUGUUGGUUGUCGUUUUUAACCCAAUGCACACAACAGAGGAUUGAGCAUCA
B10: chr17:65740002:65740003:+_ENSG00000130935_ENST00000581375|hu_hu|hu_hu_hu_mus_False|38_58 (ssRNA)
RNA: GGGAGUUCUACAGUCCGACGAUCAACAAAUCUUUCUUCCCUGGACGAACAGGAAGAUUCAUAUUAAAAAAAAUAUAUGUCUAUGAAGUUAGGUGUGUAAUAUCAGACUUUACUCCCAGCACUUUGGGAGGUGGAUCUCUGAGUCAACAGAGGAUUGAGCAUCA
B11: chr11:47008823:47008824:+_ENSG00000149179_ENST00000278460|hu_mus|FALSE|FALSE (ssRNA)
RNA: GGGAGUUCUACAGUCCGACGAUCUCCUUGGCAUACGCUGUUAAAAUAGUCAGUGAAGAACCGGGCAAUGCCAUACUGGCUAAUAUCCUCCCUGUUCUCCAGCAGCUGGCACACUGCAUCCUCCAUGUACGUGAGGACAUGUCUCAACAGAGGAUUGAGCAUCA
B12: 183116090_183117748_1239_CDS_ENSMUSG00000038733_ENSMUST00000162963|mouse|control|control (ssRNA)
RNA: GGGAGUUCUACAGUCCGACGAUCCUGACCACGCUGACCUCCCGUCACAAAGCGUUUCCCAUCUGGAUUCCAGGCCACACUGGUCAAACUGUCUUCAUGAGAUUGGCUCAUUUUUGUUCUUAAUUCUCCCGUCUGUACAUUCCACAACAGAGGAUUGAGCAUCA
B13: 21196780_21198168_765_CDS_ENSMUSG00000032178_ENSMUST00000067646|mouse|control|control (ssRNA)
RNA: GGGAGUUCUACAGUCCGACGAUCGACUGAUAGCGUUUCUCCAGCUAAUACUUUCUCCAUUUCUUCUCUGACAACAGGGGAGGUCAGAUGGAUGGUCAAGGACAAGGGGGGCUCUUUUGUGUUUUUUAUCACAAUCGCAGCAUCCAACAGAGGAUUGAGCAUCA
B14: chr10:33190432:33190433:-_ENSG00000150093_ENST00000302278|hu_mus|hu_hu_hu_mus_True|18_78 (ssRNA)
RNA: GGGAGUUCUACAGUCCGACGAUCUACAUUUUCCAAACCUGCAUGUGAAUAAAACCCUGGCAAUAUUGCCCCAAAACUACCCUACUGUGACUAAGAUGCUGCUGCUGUGAGCUUGGUUGUUGUGGGACCGCCUGAGUAGGAUUCCAACAGAGGAUUGAGCAUCA
B15: chr3:176740097:176740098:-_ENSG00000177565_ENST00000430069|hu_mus|hu_hu_hu_mus_True|38_78 (ssRNA)
RNA: GGGAGUUCUACAGUCCGACGAUCUGUUUUGUAUACCACAAAAGGAGGCACUUUCAGUAUCUGUAAAAGGUGUUUAGUCCUAAAACAUACUCACCUAGAGAAUAAUUCAGGAAAACAAUCUGUUACACUCUAAGACCUACUCCACAACAGAGGAUUGAGCAUCA
B16: chr16:94645698:94645699:+_ENSMUSG00000040785_ENSMUST00000117648|mus_mus|FALSE|FALSE (ssRNA)
RNA: GGGAGUUCUACAGUCCGACGAUCAUAUCCACGGCACUUCUGAUAGCAACAAACAGCAUCUGGCACUGGGGGAAACUUGCAUUCUUCAACAAACUUCUCUAACAUCACCUUGACUUUUUCUGGCUUAGAUUCUUCAAUAAUCACCAACAGAGGAUUGAGCAUCA
B17: 158363983_158364548_362_CDS_ENSG00000168827_ENST00000264263|human|control|control (ssRNA)
RNA: GGGAGUUCUACAGUCCGACGAUCUGUGAAGUCCACAUGCCCAGGAGUAUCUAUAAUGUUAAUAUUGACAUCUUUCCACAUGGUGUAAGUGGCUGCUGACUGAAUAGUGAUUCCUCUUUGUCUCUCUAGUUCCAUGGAAUCCAUCAACAGAGGAUUGAGCAUCA
B18: chr14:62224477:62224478:+_ENSMUSG00000035235_ENSMUST00000039562|mus_mus|motif|central (ssRNA)
RNA: GGGAGUUCUACAGUCCGACGAUCUUCACCAAAAAUGAAAAACCCAUCUGUCAUCUGUUCCCAGUAAAAAACAGAUUGUUCGGUAAAAUCAGCAGACUUAGUCAGGUAAGAAUUGAAGCUUGAAAGAUAGUCUUUCCAAGUUGCCAACAGAGGAUUGAGCAUCA
B19: chr1:60038506:60038507:+_ENSMUSG00000041040_ENSMUST00000036540|mus_hu|FALSE|FALSE (ssRNA)
RNA: GGGAGUUCUACAGUCCGACGAUCAGCUUCCUCAAUUGGUUCUGGUGGUGGGAGUAGAGAAGCUGAUGGCAUGACUGUACUUGUUCCUCGAGAGACUCGGUCUUGCUCUGUGUUUGUAGACAGGGAGGCCACAGCAAUAGGCUGCAACAGAGGAUUGAGCAUCA
B20: chr7:140402705:140402706:+_ENSG00000090266_ENST00000247866|hu_mus|FALSE|FALSE (ssRNA)
RNA: GGGAGUUCUACAGUCCGACGAUCUGAGCUUAAGAACUCACCCUGGAUCACCUGGGACCGGGUAAGCUGGGGAAACUCCCUGUACCGGGGCUGAAUAUGUACACCACCGCCAGCGUGACGGACUCCACUGUCUCCAGCCGCCCGCAACAGAGGAUUGAGCAUCA
B21: chrX:98614190:98614191:-_ENSMUSG00000031310_ENSMUST00000121520|mus_mus|FALSE|FALSE (ssRNA)
RNA: GGGAGUUCUACAGUCCGACGAUCUGGGGGAGCCCAUCCUCGACUUGGGGCAGUCUGAGAUUCCAGCAGAUCCUCUCCAAAUUCCAUGUCUACUGGAAGGUCUCCAGCCAGGGGCUUCUCUGGCAGGGUCAAUGGGUCAAAUGGCAACAGAGGAUUGAGCAUCA
B22: chr3:149686237:149686238:-_ENSG00000070087_ENST00000452853|perfect_dup|FALSE|FALSE (ssRNA)
RNA: GGGAGUUCUACAGUCCGACGAUCCUCCCCACCUUGACUCUUUGUCCGGAUGUCCAUUGUGCAGUCACCAUCAACGUAUAGGCUAUCUCUGAUCACAGAACACUUCUUUGCUCCAAGAGUCAAACCGUUGGUAAAGAAACCUUCCAACAGAGGAUUGAGCAUCA

Target: T1, UNK ZnF1-3
Assay: nsRBNS (natural sequence RNA bind-n-seq); RBNS binding buffer (assumed for nsRBNS): 25 mM Tris pH 7.5, 150 mM KCl, 3 mM MgCl2, 0.01% Triton X-100, 500 ug/ml BSA, 20 U/ml SUPERase-In, 4 C; UNK is unkempt and MSI1 is Musashi-1; names of the RNAs are library labels; protein concentration not given here; high values mean tight binding

| Binder | binding signal |
| --- | --- |
| B1 | 1.17 enrichment R |
| B2 | 0.799 enrichment R |
| B3 | 1.28 enrichment R |
| B4 | 1.56 enrichment R |
| B5 | 2.55 enrichment R |
| B6 | 1 enrichment R |
| B7 | 1.36 enrichment R |
| B8 | 0.831 enrichment R |
| B9 | 0.599 enrichment R |
| B10 | 1.72 enrichment R |
| B11 | 0.72 enrichment R |
| B12 | 0.785 enrichment R |
| B13 | 1.1 enrichment R |
| B14 | 1.19 enrichment R |
| B15 | 0.632 enrichment R |
| B16 | 1.37 enrichment R |
| B17 | 0.966 enrichment R |
| B18 | 1.03 enrichment R |
| B19 | 2.03 enrichment R |
| B20 | 0.693 enrichment R |
| B21 | 0.8 enrichment R |
| B22 | 1.08 enrichment R |
